# The supplement of paper PMC10369915
# The list shows a part of the results. No stated cut-off is given here; in the data, active = 3.2 or more and inactive = the rest. Most of these values are background signal.
# B1: A17_VAR67_203 (peptide)
# chain: NSLNTDDYGGGGGGG
# B2: MYH1_HUMAN_389 (peptide)
# chain: EVADKAAYLQNLNSA
# B3: MY18A_HUMAN_2035_YA (peptide)
# chain: DNTSRPRYSHSALSD
# B4: NFASC_HUMAN_481_YA (peptide)
# chain: DGGNAHVYENGSLEI
# B5: MUC1_HUMAN_1229 (peptide)
# chain: SSTDRSPYEKVSAGN
# B6: ANR11_HUMAN_1851 (peptide)
# chain: ACLSPGYYSPDYGLP
# B7: NFL_HUMAN_43_YA (peptide)
# chain: ARSAASSYSAPVSSS
# B8: NMT1_HUMAN_180 (peptide)
# chain: YTLLNENYVEDDDNM
# B9: MYH9_HUMAN_158 (peptide)
# chain: YAITDTAYRSMMQDR
# B10: MNS1_HUMAN_188 (peptide)
# chain: NKAKAQYYLDLEKQL
# B11: NFIP2_HUMAN_171 (peptide)
# chain: TEVYGEFYPVPPPYS
# B12: MUSK_HUMAN_751_YA (peptide)
# chain: FGLSRNIYSADAAKA
# B13: NAMPT_HUMAN_188 (peptide)
# chain: GNLDGLEYKLHDFGY
# B14: NFIP2_HUMAN_167 (peptide)
# chain: TTSDTEVYGEFYPVP
# B15: ANR11_HUMAN_1850 (peptide)
# chain: FACLSPGYYSPDYGL
# B16: MPZL1_HUMAN_263 (peptide)
# chain: NKSESVVYADIRKNG
# B17: MOES_HUMAN_116 (peptide)
# chain: GILNDDIYCPPETAV
# B18: MRP1_HUMAN_277 (peptide)
# chain: KQPVKVVYSSKDPAQ
# B19: NECT1_HUMAN_436 (peptide)
# chain: GPLGGSSYEEEEEEE
# B20: ANKK1_HUMAN_178 (peptide)
# chain: EQSTRMQYIERSALR
# B21: MYC_HUMAN_32 (peptide)
# chain: CDEEENFYQQQQQSE
# B22: NGEF_HUMAN_179_YA (peptide)
# chain: IEQIGLLYQEARDKS
# B23: MYH9_HUMAN_158_YA (peptide)
# chain: AAITDTAYRSMMQDR
# B24: NNRD_HUMAN_85_YA (peptide)
# chain: VVGGCQEYTGAPAFA
# B25: NCKIPSD_HUMAN_227 (peptide)
# chain: STSLDTLYTSSSPSE
# B26: MTAP2_HUMAN_745 (peptide)
# chain: SMDEGDDYLPATTPA
# B27: NEGR1_HUMAN_187_YA (peptide)
# chain: KPFENGQYLDIAGIT
# B28: NMDE2_HUMAN_1109 (peptide)
# chain: FDEIELAYRRRPPRS
# B29: NEK9_HUMAN_52 (peptide)
# chain: AEQEELHYIPIRVLG
# B30: NFIP2_HUMAN_177_YA (peptide)
# chain: FAPVPPPYSVATSLP
# B31: MYL3_HUMAN_130 (peptide)
# chain: KNKDTGTYEDFVEGL
# B32: NAA50_HUMAN_110 (peptide)
# chain: DGTFDNIYLHVQISN
# B33: MNS1_HUMAN_188_YA (peptide)
# chain: NKAKAQAYLDLEKQL
# B34: MY18A_HUMAN_2035 (peptide)
# chain: DNTSRPRYSHSYLSD
# B35: ANLN_HUMAN_671 (peptide)
# chain: SEDRDLLYSIDAYRS
# B36: NANOG_HUMAN_35 (peptide)
# chain: ICGPEENYPSLQMSS
# Assays:
# Test in all cases: enrichment score (SH2-bound / input frequency) (ratio); bacterial display of known human phosphotyrosine sites (pTyr-Var adds point mutants) read by sequencing; higher = stronger binding; tyrosines were phosphorylated by kinases first
# Conditions in all cases: peptide library: Human pTyr
# SHP2 C-SH2 domain E139D = target: SHP2 C-SH2 domain E139D
# [1] = target: SHP2 C-SH2 domain wild-type
# SHP2 N-SH2 domain L43F = target: SHP2 N-SH2 domain L43F
# SHP2 N-SH2 domain T42A = target: SHP2 N-SH2 domain T42A
# SHP2 N-SH2 domain T52S = target: SHP2 N-SH2 domain T52S
# [2] = target: SHP2 N-SH2 domain wild-type
# 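Further: displayed peptides selected on beads carrying the immobilized SH2 domain, with library peptides lacking any tyrosine serving as negative controls.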
Binder,enrichment score (SHP2 C-SH2 domain E139D),enrichment score [1],enrichment score (SHP2 N-SH2 domain L43F),enrichment score (SHP2 N-SH2 domain T42A),enrichment score (SHP2 N-SH2 domain T52S),enrichment score [2]
B1,inactive: 0.565,inactive: 0.577,inactive: 0.534,inactive: 0.49,inactive: 0.531,inactive: 0.64
B2,inactive: 0.706,inactive: 0.647,inactive: 0.709,inactive: 0.618,inactive: 0.707,inactive: 0.698
B3,inactive: 0.673,inactive: 0.636,inactive: 0.731,inactive: 0.658,inactive: 0.698,inactive: 0.729
B4,inactive: 0.95,inactive: 0.767,inactive: 0.823,inactive: 0.808,inactive: 0.762,inactive: 0.717
B5,inactive: 0.634,inactive: 0.655,inactive: 0.623,inactive: 0.871,inactive: 0.622,inactive: 0.863
B6,inactive: 1.08,inactive: 1.14,inactive: 1.06,inactive: 0.789,inactive: 1.12,inactive: 1.18
B7,inactive: 0.563,inactive: 0.503,inactive: 0.572,inactive: 0.497,inactive: 0.582,inactive: 0.54
B8,inactive: 1.2,inactive: 0.951,inactive: 1.01,inactive: 0.761,inactive: 0.922,inactive: 1.26
B9,inactive: 0.951,inactive: 2.04,inactive: 0.733,inactive: 0.637,inactive: 0.761,inactive: 0.75
B10,inactive: 1.3,inactive: 1.05,inactive: 0.891,inactive: 0.995,inactive: 1.02,inactive: 1.21
B11,inactive: 0.867,inactive: 0.549,inactive: 0.528,inactive: 0.808,inactive: 0.686,inactive: 0.694
B12,inactive: 0.461,inactive: 0.525,inactive: 0.704,inactive: 0.609,inactive: 0.503,inactive: 0.548
B13,inactive: 0.604,inactive: 0.547,inactive: 0.494,inactive: 0.612,inactive: 0.491,inactive: 0.552
B14,inactive: 0.624,inactive: 0.92,inactive: 0.52,inactive: 0.509,inactive: 0.583,inactive: 0.793
B15,inactive: 1.31,inactive: 1.23,inactive: 1.26,inactive: 1.38,inactive: 1.58,inactive: 1.9
B16,active: 19,active: 24.2,inactive: 1.12,active: 3.91,inactive: 1.01,inactive: 1.07
B17,inactive: 0.825,inactive: 0.784,inactive: 0.87,inactive: 0.681,inactive: 0.819,inactive: 0.865
B18,inactive: 1.37,inactive: 1.19,inactive: 1.19,inactive: 1.27,inactive: 1.21,inactive: 1.91

Binder,enrichment score (SHP2 C-SH2 domain E139D),enrichment score [1],enrichment score (SHP2 N-SH2 domain L43F),enrichment score (SHP2 N-SH2 domain T42A),enrichment score (SHP2 N-SH2 domain T52S),enrichment score [2]
B19,inactive: 1.04,inactive: 1.04,inactive: 1.02,inactive: 0.988,inactive: 1,inactive: 1.31
B20,inactive: 0.886,inactive: 0.695,inactive: 0.619,inactive: 0.555,inactive: 0.702,inactive: 0.758
B21,inactive: 1.54,inactive: 1.15,inactive: 0.837,inactive: 1.11,inactive: 1.07,inactive: 1.27
B22,inactive: 0.823,inactive: 0.638,inactive: 0.664,inactive: 0.652,inactive: 0.607,inactive: 0.632
B23,inactive: 0.695,inactive: 0.681,inactive: 0.78,inactive: 0.741,inactive: 0.784,inactive: 0.707
B24,inactive: 1.11,inactive: 1.07,inactive: 0.991,inactive: 1.02,inactive: 1.03,inactive: 1.08
B25,inactive: 0.561,inactive: 0.462,inactive: 0.488,inactive: 0.571,inactive: 0.578,inactive: 0.38
B26,inactive: 0.925,inactive: 0.666,inactive: 0.791,inactive: 0.778,inactive: 0.901,inactive: 1.09
B27,inactive: 0.852,inactive: 0.574,inactive: 0.656,inactive: 0.666,inactive: 0.732,inactive: 0.853
B28,inactive: 0.477,inactive: 0.403,inactive: 0.543,inactive: 0.856,inactive: 0.645,inactive: 0.534
B29,inactive: 1.24,inactive: 1.01,inactive: 1.01,inactive: 0.795,inactive: 1.13,inactive: 1.37
B30,inactive: 0.617,inactive: 0.674,inactive: 0.646,inactive: 0.656,inactive: 0.846,inactive: 0.654
B31,inactive: 1.04,inactive: 0.779,inactive: 0.834,inactive: 0.793,inactive: 0.858,inactive: 0.891
B32,inactive: 1.37,inactive: 1.28,inactive: 1.57,inactive: 1.18,inactive: 1.9,inactive: 1.6
B33,inactive: 1.18,inactive: 1.01,inactive: 0.982,inactive: 1.09,inactive: 1.21,inactive: 1.49
B34,inactive: 0.65,inactive: 0.681,inactive: 0.817,inactive: 0.67,inactive: 0.665,inactive: 0.775
B35,inactive: 0.554,inactive: 0.509,inactive: 0.556,inactive: 0.578,inactive: 0.637,inactive: 0.589
B36,inactive: 1.25,inactive: 0.942,inactive: 1.23,inactive: 0.893,inactive: 1.06,inactive: 1.06
